# Measurements published in PMC4336329 (PLoS ONE, 2015).
# The whole screen tested about 310,000 compounds, of which about 14,000 (4.5%) showed an effect of 50% or more. The effect is printed as a negative number. The list shows a part of the results.
# Biological target: human ether-à-go-go-related gene (hERG) potassium channel (human, UniProt Q12809)
# Experiment: primary screen, population patch clamp on CHO cells stably expressing hERG
# 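Note: peak tail current of the secondary pulse compared with the same well before compound.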
# Chain of human ether-à-go-go-related gene (hERG) potassium channel (Q12809 whole entry, looked up): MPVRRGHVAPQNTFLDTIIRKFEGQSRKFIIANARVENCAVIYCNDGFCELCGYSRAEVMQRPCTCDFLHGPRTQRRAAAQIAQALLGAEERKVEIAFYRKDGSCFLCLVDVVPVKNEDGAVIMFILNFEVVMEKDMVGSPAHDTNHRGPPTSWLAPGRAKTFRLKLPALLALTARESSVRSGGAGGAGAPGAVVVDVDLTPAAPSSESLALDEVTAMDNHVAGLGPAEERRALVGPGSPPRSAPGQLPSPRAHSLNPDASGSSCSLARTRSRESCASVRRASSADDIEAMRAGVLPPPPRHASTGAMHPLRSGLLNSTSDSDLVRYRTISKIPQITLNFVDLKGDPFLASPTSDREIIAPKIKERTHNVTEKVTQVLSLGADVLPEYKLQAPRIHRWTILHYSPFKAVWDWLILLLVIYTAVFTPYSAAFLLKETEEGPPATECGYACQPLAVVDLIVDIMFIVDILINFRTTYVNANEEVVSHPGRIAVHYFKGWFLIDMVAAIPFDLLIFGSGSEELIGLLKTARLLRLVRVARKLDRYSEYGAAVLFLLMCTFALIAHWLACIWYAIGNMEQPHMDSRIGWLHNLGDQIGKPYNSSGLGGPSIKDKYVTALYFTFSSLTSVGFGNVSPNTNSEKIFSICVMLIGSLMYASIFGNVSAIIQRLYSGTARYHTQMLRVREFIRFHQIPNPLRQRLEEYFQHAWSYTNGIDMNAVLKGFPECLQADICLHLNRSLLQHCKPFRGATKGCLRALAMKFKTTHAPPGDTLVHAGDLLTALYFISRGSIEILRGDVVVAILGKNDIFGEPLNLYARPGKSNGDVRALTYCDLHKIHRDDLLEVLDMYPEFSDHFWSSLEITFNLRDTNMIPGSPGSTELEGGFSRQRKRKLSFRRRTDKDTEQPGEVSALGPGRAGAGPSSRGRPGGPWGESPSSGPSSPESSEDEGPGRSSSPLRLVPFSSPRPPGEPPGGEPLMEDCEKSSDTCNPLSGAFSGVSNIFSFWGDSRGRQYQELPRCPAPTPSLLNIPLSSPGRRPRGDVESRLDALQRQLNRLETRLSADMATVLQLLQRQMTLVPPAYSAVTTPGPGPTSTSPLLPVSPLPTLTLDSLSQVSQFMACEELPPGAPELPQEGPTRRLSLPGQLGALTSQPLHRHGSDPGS
row,SMILES,"hERG current change (%, negative = inhibition) at 10uM"
1,Cc1cc(-c2ccccc2)nc(N(C)C)c1S(C)(=O)=O,20.1%
2,Cc1ccnc(-n2sc3ccccc3c2=O)n1,14.7%
3,COc1cccc(CN2CCN(S(=O)(=O)c3ccc(Cl)s3)CC2)c1,-46.3%
4,Cc1ccccc1CN1C[C@@H]2C[C@@H](c3cnc(N4CCOCC4)s3)N3CCC[C@@]23C1=O,1.74%
5,Cc1ccc(-c2ccc(C(=O)NCc3ccc(Cl)cc3)o2)c2ccccc12,6.33%
6,CC(=O)N1c2c(cc(Br)cc2S(=O)(=O)N2CCN(C(=O)c3ccco3)CC2)CC1C (stereo not shown),-5.52%
7,CCOC(=O)CN1C(=O)N[C@H](c2ccc(Br)cc2)C(C(C)=O)=C1C,6.7%
8,CN=c1scc(-c2cc(OC)ccc2OC)n1/N=C/c1c(C)[nH]c2ccccc12,8.19%
9,COc1cc(/C=N/Nc2nn3cnnc3c3ccccc23)cc(OC)c1OC,4.25%
10,COc1ccc(/C=C/C(=O)NC(=S)NNC(=O)c2cccnc2)cc1OC,11.1%
11,Cl.O=C(CN1CCCC1)N1c2ccccc2C=Cc2ccccc21,1.12%
12,CCn1c(=O)c(CCC(=O)N2CCN(c3ccccn3)CC2)c(C)c2c(C)nn(-c3ccccc3)c21,-17.8%
13,CCOc1ccc(NC(=O)c2ccccc2NC(=O)CN(C)CC(=O)Nc2ccc(C)cc2)cc1,-2.68%
14,CCOC(=O)N1CCN(Cc2nc3c(c(=O)n(C)c(=O)n3C)n2Cc2ccc(F)cc2)CC1,-36.2%
15,O=C(CCSc1ccc(Cl)cc1)NCc1ccncc1,-32.7%
16,Cc1ccc(NC(=O)N2CCCC(c3nc(-c4ccc(F)cc4)no3)C2)cc1 (stereo not shown),-16.4%
17,O=C(O)c1ccccc1Nc1ccccc1C(=O)O,-2.63%
18,CCCc1ccc2oc(C(=O)N(Cc3ccncc3)CC3CCCO3)c(C)c2c1 (stereo not shown),-71.6%
19,O=S1(=O)CCN(Cc2ccc(F)cc2)CC1,10.5%
20,COc1cc(/C=C/C(=O)OCC(=O)NC2CCS(=O)(=O)C2)ccc1OC(F)F (stereo not shown),-14%
21,O=C(CSc1nc2ccc([N+](=O)[O-])cc2s1)NCC1CCCO1 (stereo not shown),-54.4%
22,Cc1c(C(=O)N2CCN(c3ccc([N+](=O)[O-])cc3)CC2)oc2ccccc12,-72.8%

row,SMILES,"hERG current change (%, negative = inhibition) at 10uM"
1,CCC(C)NC(=O)c1ccc([N+](=O)[O-])c(Cl)c1 (stereo not shown),-3.97%
2,CCOc1ccc(-c2nnn(CC(=O)Nc3cccc(OC)c3)n2)cc1OCC,6%
3,Cn1cnnc1Sc1nc2c(c(=O)n(C)c(=O)n2C)n1Cc1ccccc1Cl,-23.7%
4,COc1ccccc1Nc1nc(-c2sc(NC(=O)c3ccccc3)nc2C)cs1,15.7%
5,COc1ccc(NC(C)=O)cc1NC(=O)CN1CCN(S(=O)(=O)c2ccc(C(C)C)cc2)CC1,-9.86%
6,c1ccc(OCc2nnc3n2N=C(c2ccccc2)CS3)cc1,-31.8%
7,Cc1nn(-c2nc3ccccc3n2Cc2ccccc2)c2c1C(=O)CC(C)(C)C2,-34%
8,CCOC(=O)c1c(C)nc(-c2ccccc2)nc1NC(C)=O,-10.2%
9,Clc1cccc(Cl)c1/C=N\Nc1nccs1,-2.98%
10,CCc1ccc(NC(=O)CN2CCCN(S(=O)(=O)c3ccc(F)cc3)CC2)cc1,-63.9%
11,CCOc1ncccc1C(=O)OCC(=O)NC1CC1,15.5%
12,CCCCn1nc2cc(C(=O)NCC34CC5CC(CC(C5)C3)C4)ccc2c1OCC,-13.9%
13,CCOc1ccc(/C(O)=C2/C(=O)C(=O)N(Cc3cccnc3)C2c2ccc(N(C)C)cc2)c(C)c1 (stereo not shown),-31.3%
14,Cc1ccc(S(=O)(=O)N2CCN(C(=O)c3ccccn3)CC2)cc1,9.2%
15,O=C(O)C(=O)O.O=C(c1cccs1)N1CCN(Cc2ccccn2)CC1,28.1%
16,O=C(CSc1nc2c(cnn2-c2ccc(F)cc2)c(=O)[nH]1)N1CCCCCC1,0.0971%
17,CN(Cc1ccco1)S(=O)(=O)c1nnc(NC(=O)c2cccc(Cl)c2)s1,13.3%
18,C=C(C)C(=O)OC1(C(F)(F)F)Oc2cc(C)ccc2NC1=O (stereo not shown),6.5%
19,O=C(Nc1ncc(Cc2ccccc2)s1)c1cccs1,2.03%
20,COc1ccc(C(C(=O)NC(C)(C)C)N(C(=O)CCC(=O)Nc2cc(C)on2)c2c(C)cccc2C)cc1 (stereo not shown),13.3%
21,O=C(COC(=O)COc1cccc(C(F)(F)F)c1)NC(=O)NC1CCCCC1,-1.9%
22,COc1ccc(NC(=O)CCCN2C(=O)/C(=C\c3ccco3)SC2=S)cc1,2.84%

row,SMILES,"hERG current change (%, negative = inhibition) at 10uM"
1,CC(C)CN(C(=O)COc1ccc([N+](=O)[O-])cc1)c1c(N)n(CC(C)C)c(=O)[nH]c1=O,-13.6%
2,O=C(CN1CCN(Cc2ccccc2Cl)CC1)N/N=C/c1ccccn1,-25.8%
3,COc1ccc(NC(=O)CSc2nncs2)cc1OC,5.25%
4,Cc1cccc(C(=O)Nc2cccc(OCC(=O)O)c2)c1,18.3%
5,COC(=O)CSc1nc2nc(-c3cccs3)cc(C(F)(F)F)c2c(=O)[nH]1,17.7%
6,O=C(c1ccccc1)N1CCSC1=S,-0.835%
7,O=C1CN(C(=O)CCN2CCOCC2)C(c2ccccc2)c2cc(Br)ccc2N1 (stereo not shown),-60.5%
8,COC(=O)C1=C(N)Oc2cc(C)n(Cc3ccccc3)c(=O)c2C1c1ccccc1 (stereo not shown),-6.61%
9,CCOc1ccc(C(=O)Nc2c3c(nn2-c2cccc(Cl)c2)CS(=O)C3)cc1 (stereo not shown),-18.8%
10,COC(=O)c1ccc(/C=N/OCC(=O)NCCc2ccc(OC)c(OC)c2)cc1,-8.75%
11,Cc1occc1-c1nnc(SCc2cc(=O)n3cc(Br)ccc3n2)n1C,-47.7%
12,O=C(CN1C(=O)C2CCCCN2C(=O)c2ccccc21)Nc1ccc(F)cc1.O=C(O)C(=O)O (stereo not shown),-1.9%
13,COc1ccc(CCNC(=O)CS(=O)Cc2nc(-c3ccccc3F)oc2C)cc1OC (stereo not shown),13%
14,CCc1[nH]nc(C(=O)N2CCCC(N3CCN(c4ccccc4C)CC3)C2)c1C (stereo not shown),-23.8%
15,C=CCOC(=O)c1sc(NC(=O)c2ccc(OC)cc2)nc1C,20.2%
16,Cc1ccccc1/C=C\c1nc2ccccc2c(=O)n1Cc1ccccc1,1.88%
17,CCN(CC)P1(=O)OC(c2cc(OC)c(OC)c(OC)c2)=Nc2c1c(C)nn2-c1ccccc1 (stereo not shown),-9.67%
18,COc1ccc(-n2nc(C(=O)NCC(=O)NCCCN3CC(C)CC(C)C3)c3ccccc3c2=O)cc1 (stereo not shown),-37.2%
19,O=C(NCc1ccccc1)[C@@H]1CSC2c3ccccc3C(=O)N21 (stereo partly shown),-2.83%
20,Cc1cc(S(=O)(=O)NC2CCCCC2)ccc1OCC(=O)NCC1CCCO1 (stereo not shown),11.9%
21,CCCCn1c(SCC(=O)Nc2ccc3c(c2)CCC3)nc2ccccc2c1=O,-33.6%
22,O=C(CSCc1ccc(Cl)cc1)N1CCCCC1,-2.62%

row,SMILES,"hERG current change (%, negative = inhibition) at 10uM"
1,O=c1[nH]c(=S)[nH]c(O)c1C(c1ccccn1)c1c(O)[nH]c(=S)[nH]c1=O,7.07%
2,CCN(CC)C(=O)c1[nH]cnc1C(=O)Nc1ccc(OC)cc1,19%
3,O=C(NC(=S)Nc1ccc(N2CCOCC2)cc1)c1cccs1,34.1%
4,COc1ccc(C2(CNC(=O)c3ccccc3[N+](=O)[O-])CCOCC2)cc1,14.4%
5,CCC(C(=O)N1CCN(S(=O)(=O)c2ccc(F)cc2)CC1)c1ccccc1 (stereo not shown),-19%
6,COc1ccc(NC(=O)c2cc(-c3ccco3)nc3ccccc23)cc1S(=O)(=O)N1CCOCC1,-1%
7,Cc1c(C(=O)OCC(=O)N(C)c2ccccc2)cccc1[N+](=O)[O-],-13.4%
8,N#CC1=C(N)OC2=C(CC/C2=C\c2ccc(F)cc2)C1c1ccc(F)cc1 (stereo not shown),4.13%
9,O=c1c(Cc2c(F)cccc2Cl)c(O)ccn1C1CC1,-11.7%
10,COc1ccc(-c2noc(CCC(=O)NCc3cccnc3)n2)cc1,-6.1%
11,COc1ccc(S(=O)(=O)N2CCOCC2)cc1NC(=O)CN1CCCC1,20.2%
12,Oc1ccccc1N=Cc1ccc[nH]1,4.42%
13,CCN(CC(=O)Nc1ccc2c(c1)OCCO2)C(=O)c1ccc(C)c(S(=O)(=O)N2CCOCC2)c1,4.73%
14,Oc1ccccc1C1=NN(c2ccccc2)C(c2ccccc2)C1 (stereo not shown),5.04%
15,COc1cc(OC)cc(C(=O)Nn2cc(C(=O)N3CCN(C)CC3)c3ccccc3c2=O)c1,2.72%
16,Cc1ccc(Cn2c(CCCO)nc3ccccc32)cc1,2.26%
17,COc1ccc(NC(=S)NCCC(c2ccccc2)c2ccccc2)c(OC)c1,2.53%
18,CCN(CC)S(=O)(=O)c1ccc2nc(COC(=O)c3n[nH]c4ccccc34)[nH]c2c1,5.75%
19,COC(=O)CN(C(=S)Nc1ccc(Cl)cc1)C1CC(=O)N(c2ccc(OC)cc2)C1=O (stereo not shown),-13.8%
